# Test results reported in PubChem BioAssay AID686970 (National Center for Advancing Translational Sciences (NCATS), 2013).
# Hit rate of the full screen: of about 360,000 compounds, about 6,000 (1.7%) were called active. The inconclusive results got no clear call from the source; some entries with a clear call stand among them for comparison. Calls follow the shape of the dose curve; as a rule, active = well fitted cell-killing curve with a large enough effect; inconclusive = small, poorly fitted or top-dose-only effect, or effect the other way; inactive = flat fitted curve, though single readings scatter. No potency is given beside an inconclusive call; the fits are too rough.
# Test: qHTS for induction of synthetic lethality in tumor cells producing 2HG: qHTS for the HT-1080-NT fibrosarcoma cell line;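 also: NT is the 2HG producing partner of a matched IDH1 knockdown line; nearly all actives have a fitted effect of over 55% in size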;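 as to activity, negative = less viability: 0% = DMSO-treated cells and -100% = media-only wells without cells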
# Settings: HT-1080-NT fibrosarcoma viability, CellTiter-Glo ATP luminescence, 48 h; activity, negative = less viability: at 46.1 µM (top of the series) unless noted
# Method in brief: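 750 cells/well, RPMI + 5% FBS; 2 h settle, compound pin-transfer, 48 h at 37 degrees C. CellTiter-Glo 10 min RT, luminescence. Normalized to DMSO and media-only wells.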
# Potency is read from the fitted curve at half-maximal effect; tags tell the direction and shape of the fitted curve.
Compound,Potency,"activity, negative = less viability"
Cc1ccc(CC(=O)NCc2ccc(F)cc2)cc1,active: 9.2 µM,–
CCOC(=O)c1c(NC(NC(C)=O)C(Cl)(Cl)Cl)sc(C(C)=O)c1C (stereo not drawn),"inconclusive [cytotoxic, single point]",–
C[C@H]1C[C@@H]2[C@H]([C@@H](O)C[C@@]3(C)[C@H]2CC[C@]3(O)C(=O)CO)[C@@]2(C)C=CC(=O)C=C12,"inconclusive [rising, single point]",–
Cc1ccc(/C=C2/SC(=S)N(CC(=O)Nc3ncc(Cc4ccc(C)cc4)s3)C2=O)cc1,inactive,–
Cc1c(C(=O)Nc2ccccc2)c2ccc(C(F)(F)F)cc2n1O,"inconclusive [cytotoxic, single point]",–
CN(CC(=O)Nc1ccccc1Br)C(=O)CNC(=O)c1cccs1,inactive,–
ClC(Cl)(c1nnnn1-c1ccccc1)c1nnnn1-c1ccccc1,"inconclusive [cytotoxic, single point]",–
Cc1ccc(NC(=O)CN(C)S(=O)(=O)c2cccc3nsnc23)cc1C,inactive,–
Cc1ccc(NC(=O)[C@H](Cc2c[nH]c3ccccc23)NC(=O)[C@@H]2Cc3ccccc3CN2)c(C)c1,"inconclusive [cytotoxic, partial curve, poor fit]",–
COc1cccc(OCC(=O)N(Cc2nc(-c3ccc(Cl)cc3)no2)C(C)C)c1,"inconclusive [cytotoxic, single point]",–
Cc1ccc(CNC(=O)C2CCC(=O)N(Cc3ccccc3F)C2)s1 (stereo not drawn),–,inconclusive: 0.363% [cytotoxic]
Cc1nc(-c2coc3cc(O)c(C)cc3c2=O)cs1,active: 18.4 µM,–
Cc1ccccc1NC(=O)C1CCCN(C(=O)NCc2ccccc2)C1 (stereo not drawn),"inconclusive [rising, full curve, poor fit]",–
c1ccc2c(c1)cnc1ccccc12,"inconclusive [rising, partial curve, poor fit]",–
CS(=O)(=O)NC1CCN(Cc2ccccc2)CC1,inactive,–
COc1ccc(OC)c(-c2csc(NC(=O)Cc3ccc(F)cc3)n2)c1,"inconclusive [cytotoxic, single point]",–
CCCc1cc(C(=O)Nc2cccc(-c3nn[nH]n3)c2)sc1C,inactive,–
O=C1c2ccccc2C(=O)c2c1ncn2-c1ccccc1,–,inconclusive: -30.5% [cytotoxic]
COc1ccc(-c2cc3nc(-c4ccccc4)cc(N4CCN(C(C)=O)CC4)n3n2)cc1,"inconclusive [cytotoxic, single point]",–
O=C(NCCCn1ccnc1)c1cc(-c2cccs2)on1,"inconclusive [cytotoxic, partial curve]",–
Nc1ccccc1N=c1ssnc1Cl,inactive,–
Cc1cc(=O)oc2cc(NC(=O)C(C)Oc3cccc(Cl)c3)ccc12 (stereo not drawn),active: 25.9 µM,–
O=C(COC(=O)CCc1ccc(S(=O)(=O)N2CCOCC2)cc1)NCc1ccc(Cl)cc1,inactive,–
O=C(NC1CCCC1)C(c1ccccc1)n1c(-c2ccc3c(c2)CCO3)nc2ccccc21 (stereo not drawn),"inconclusive [cytotoxic, single point]",–
S=C(NCc1cccs1)Nc1cc(Cl)cc(Cl)c1,"inconclusive [cytotoxic, single point]",–

Compound,Potency,"activity, negative = less viability"
Cc1sc2ncnc(N3CCC(C(=O)N(C)CC(=O)Nc4ccc(Cl)c(C(F)(F)F)c4)CC3)c2c1C,"inconclusive [cytotoxic, single point]",–
CCOC(=O)C(=Cc1ccc(-n2ccnc2)cc1)C(=O)OCC,active: 10.3 µM,–
COc1ccc(COn2nnc3ccc(S(=O)(=O)N4CCOCC4)cc32)cc1F,inactive,–
COc1ccc(CC(N)c2csc(NC(=O)NCCc3ccccc3)n2)cc1 (stereo not drawn),"inconclusive [cytotoxic, single point]",–
CC(=O)O[C@H]1C(=O)[C@@]2(C)C([C@H](OC(=O)c3ccccc3)[C@]3(O)C[C@H](OC(=O)[C@H](O)[C@@H](NC(=O)c4ccccc4)c4ccccc4)C(C)=C1C3(C)C)[C@]1(OC(C)=O)CO[C@@H]1C[C@H]2O (stereo partly drawn),"inconclusive [cytotoxic, full curve]",–
CN(C)c1nc(NCc2ccccc2)nc(SCC(=O)Nc2ccccc2)n1,"inconclusive [cytotoxic, single point]",–
Cc1nn(-c2ccccc2)c2nc3c(cc12)C(=O)CCC3,"inconclusive [cytotoxic, full curve, poor fit]",–
COc1ccccc1CC(=O)N1CCN(c2cccc(C(F)(F)F)c2)CC1,"inconclusive [cytotoxic, single point]",–
Cc1ccccc1OCC(=O)N1N=C(C(F)(F)F)CC1(O)C(C)(C)C (stereo not drawn),"inconclusive [cytotoxic, single point]",–
N#C/C(=C\c1cccnc1)C(=O)Nc1cccc2ccccc12,"inconclusive [cytotoxic, single point]",–
O=[N+]([O-])c1ccc(Sc2nnnn2-c2ccccc2)nc1,active: 16.4 µM,–
Cc1ccc(-c2cnc(C(O)c3ccc(Cl)c(Cl)c3)[nH]2)cc1 (stereo not drawn),"inconclusive [cytotoxic, single point]",–
COc1ccccc1-c1ncn(Cc2cccc(-c3ccccc3)c2)c1CC(C)C,active: 18.4 µM,–
O=C(Nc1nc(-c2ccc(F)c(F)c2)cs1)c1ccc(OCC2CCCO2)cc1 (stereo not drawn),"inconclusive [cytotoxic, single point]",–
Cn1ccnc1-c1nc2ccccc2[nH]c1=O,"inconclusive [cytotoxic, full curve, poor fit]",–
C=CCn1c(SCc2nc3ccccc3c(=O)[nH]2)nc2ccccc2c1=O,"inconclusive [cytotoxic, single point]",–
CCOC(=O)C1(Cc2ccc(Cl)cc2)CCN(C(=O)c2sc(C)nc2C)CC1,inactive,–
S=C(NCc1ccncc1)Nc1ccc(Br)cc1Cl,"inconclusive [cytotoxic, single point]",–
COc1ccc(OC)c(NS(=O)(=O)c2ccc(N3CCCC3=O)cc2)c1,active: 0.517 µM,–
COC(=O)Nc1ccc(S(=O)(=O)N2CCCC(C(=O)NC3CCS(=O)(=O)C3)C2)cc1 (stereo not drawn),"inconclusive [rising, single point]",–
CC(CCc1ccccc1)OS(N)(=O)=O (stereo not drawn),inactive,–
O=C(CNS(=O)(=O)c1cccc(Cl)c1)OCc1csc(-c2ccccc2)n1,inactive,–
Cc1cc(NC(=O)c2ccc(Cl)cc2)cc(C)c1OCC(=O)N1CCOCC1,inactive,–
C=CCNC(=O)/C(=C/c1cccc([N+](=O)[O-])c1)NC(=O)c1ccco1,inactive,–
CC1CN(C(=S)c2cccc([N+](=O)[O-])c2)CC(C)O1 (stereo not drawn),inactive,–

Compound,Potency,"activity, negative = less viability"
O=C1C(Cl)=C(N2CCCCC2)C(=O)N1c1ccccc1Cl,inactive,–
COCc1ccc(CN2CCc3c([nH]c4ccccc34)C2C(C)(C)C)o1 (stereo not drawn),"inconclusive [cytotoxic, single point]",–
C/C(CC(C)C)=N/Nc1ccc([N+](=O)[O-])cc1[N+](=O)[O-],inactive,–
COc1ccc(C(=O)c2cc([N+](=O)[O-])ccc2N2CCOCC2)cc1,"inconclusive [cytotoxic, full curve]",–
CC(=O)NC1=NN(C(C)=O)C(C)(c2cccs2)S1 (stereo not drawn),active: 2.91 µM,–
COc1ccc(CN(CC(=O)NC2CCCC2)C(=O)c2ccc(-c3ccccc3)[nH]2)cc1,"inconclusive [cytotoxic, single point]",–
CCNC(=O)C1(C)CCN(C(=O)C(c2ccccc2)c2ccccc2)C1 (stereo not drawn),inactive,–
COc1ccc(C2Nc3ccccc3C(=O)N2c2ccccc2)cc1CN1CCOCC1 (stereo not drawn),inactive,–
CCCCCCCCN1C(=O)[C@H](CC(=O)NCC2CCCCC2)C[C@@]2(C(=O)OCC)CCC=C12,"inconclusive [cytotoxic, single point]",–
CCc1ccc(NC(=S)N(Cc2ccccc2)Cc2ccccn2)cc1,"inconclusive [cytotoxic, single point]",–
CCn1ncc(CN2CCC(n3nccc3NC(=O)c3ccccc3Cl)CC2)c1C,inactive,–
Cc1ccc(S(=O)(=O)N2CCCC(C(=O)N3CCN(c4ccccc4)CC3)C2)cc1 (stereo not drawn),inactive,–
CC(C)n1c(O)c(N=Nc2ccc(Cl)nn2)c2ccccc21,inactive,–
Cc1ccc(NC(=O)CN2C(=O)NC3(CCCc4ccccc43)C2=O)c(Cl)c1 (stereo not drawn),"inconclusive [cytotoxic, single point]",–
CN(CCNC(=O)c1c[nH]c2c1ccc1ccccc12)CCNC(=O)c1c[nH]c2c1ccc1ccccc12,"inconclusive [cytotoxic, single point]",–
CC(Nc1nc(C(F)(F)F)nc2ccccc12)c1cccs1 (stereo not drawn),active: 20.6 µM,–
COc1ccc(NC(=O)c2cccc3c(-c4cccnc4)coc23)cc1,–,inconclusive: -1.07%
CN1CCN(c2ccc(C(=O)c3cn(-c4ccc(F)c(Cl)c4)nn3)cc2)CC1,inactive,–
CC(=O)c1c(C)[nH]c(C(=O)Nc2cccc(S(=O)(=O)N(C)c3ccccc3)c2)c1C,"inconclusive [cytotoxic, single point]",–
CC1CC1C(=O)OCC(=O)Nc1ccc(Cl)cn1 (stereo not drawn),inactive,–
COc1ccccc1C1CCN(Cc2c(C)[nH]c3ccccc23)CC1,inactive,–
COc1cc(C(=O)/C=C/Nc2ccc(NC(C)=O)cc2)cc(OC)c1OC,"inconclusive [cytotoxic, single point]",–
Cc1oc(-c2nc3ccccc3n2C)cc1C(=O)c1ccccc1,"inconclusive [cytotoxic, single point]",–
